According to paper PMC4336329 (PLoS ONE, 2015):
The campaign covered roughly 310,000 compounds. About 14,000 (4.5%) showed an effect of 50% or more. The effect is printed as a negative number. The list shows a part of the results.

Target: human ether-à-go-go-related gene (hERG) potassium channel (human, UniProt Q12809)
Assay: primary screen, population patch clamp on CHO cells stably expressing hERG
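Further: peak tail current of the secondary pulse compared with the same well before compound.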

Sequence of human ether-à-go-go-related gene (hERG) potassium channel (Q12809 whole entry, looked up): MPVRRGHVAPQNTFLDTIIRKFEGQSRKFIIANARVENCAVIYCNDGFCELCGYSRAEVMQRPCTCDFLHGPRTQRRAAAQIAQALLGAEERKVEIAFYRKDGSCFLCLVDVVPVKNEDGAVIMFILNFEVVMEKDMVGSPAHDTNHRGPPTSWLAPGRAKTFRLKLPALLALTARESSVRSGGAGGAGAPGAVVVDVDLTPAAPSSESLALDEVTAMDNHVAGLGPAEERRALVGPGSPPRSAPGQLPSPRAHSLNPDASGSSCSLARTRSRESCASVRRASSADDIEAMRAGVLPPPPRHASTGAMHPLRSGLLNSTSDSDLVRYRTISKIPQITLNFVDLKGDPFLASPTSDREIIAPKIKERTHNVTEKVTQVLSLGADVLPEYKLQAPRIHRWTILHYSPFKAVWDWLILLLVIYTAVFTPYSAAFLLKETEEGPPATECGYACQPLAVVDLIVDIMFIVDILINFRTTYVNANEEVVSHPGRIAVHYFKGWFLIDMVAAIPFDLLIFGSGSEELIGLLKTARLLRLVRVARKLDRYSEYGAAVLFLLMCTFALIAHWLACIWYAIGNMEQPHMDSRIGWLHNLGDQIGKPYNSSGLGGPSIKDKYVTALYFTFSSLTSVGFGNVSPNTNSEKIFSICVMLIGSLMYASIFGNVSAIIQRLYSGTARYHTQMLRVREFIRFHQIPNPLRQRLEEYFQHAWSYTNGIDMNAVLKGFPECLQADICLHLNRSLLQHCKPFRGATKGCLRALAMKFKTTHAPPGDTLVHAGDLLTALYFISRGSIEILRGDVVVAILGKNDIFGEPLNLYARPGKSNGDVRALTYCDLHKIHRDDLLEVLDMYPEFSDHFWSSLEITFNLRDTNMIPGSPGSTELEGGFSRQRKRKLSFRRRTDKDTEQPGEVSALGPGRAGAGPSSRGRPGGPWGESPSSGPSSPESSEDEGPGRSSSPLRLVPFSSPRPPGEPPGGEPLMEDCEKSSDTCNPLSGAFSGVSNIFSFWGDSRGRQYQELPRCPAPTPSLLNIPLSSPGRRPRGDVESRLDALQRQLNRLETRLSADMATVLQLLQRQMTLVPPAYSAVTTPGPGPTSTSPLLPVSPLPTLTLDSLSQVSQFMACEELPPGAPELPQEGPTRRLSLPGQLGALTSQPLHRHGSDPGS

| SMILES | hERG current change (%, negative = inhibition) at 10uM |
| --- | --- |
| Cc1cccc(NC(=O)c2ccc(N3C(=O)C4C5C=CC(C6CC56)C4C3=O)cc2)c1 (stereo not shown) | 8.36% |
| CCOC(=O)c1cnc2ccccc2c1Nc1ccc2c(c1)OCCO2 | -12.3% |
| CCN1CCCC1CNC(=O)Cn1nc(C)n2c(cc3cc(C)ccc32)c1=O (stereo not shown) | -25% |
| Cc1ccccc1OCCC(=O)OCC(=O)N1CCN(S(=O)(=O)c2ccc(Cl)cc2)CC1 | -13.1% |
| O=C(NCCN1CCOCC1)c1ccc2c(c1)N(Cc1ccc(Cl)cc1)CCS2 | -29.8% |
| O=C(CSc1nccn1Cc1ccccc1)Nc1nccs1 | -5.7% |
| CCOC(=O)c1ccccc1NC1CC(=O)N(c2ccccc2C)C1=O (stereo not shown) | -0.773% |
| C/C(=N\NC(=O)CSCc1ccc(Cl)cc1)c1ccc(NC(=O)c2ccccc2)cc1 | 18.9% |
| CCNS(=O)(=O)c1ccc(CCC(=O)N2CCN(c3cc(Cl)ccc3C)CC2)cc1 | 13.4% |
| Oc1ccc(N=Nc2ccc3c(c2)OCCO3)c2cccnc12 | 11.9% |
| O=C(CN1C(=O)c2ccccc2S1(=O)=O)c1ccc(F)cc1 | 10.6% |
| CCCCNC(=O)CC1SC(=NCC)N(CC)C1=O (stereo not shown) | 6.63% |
| CCn1nnc2c(=O)oc3ccccc3c21 | 6.46% |
| COC(=O)/C=C1\SC(N)=NC1=O | 7.71% |
| CC(C)CC(=O)N1CCN(Cc2ccc3ccccc3c2)CC1 | -1.76% |
| CCOC(=O)c1c(N)sc(C(=O)N2CCCCC2)c1C | 8.81% |
| Cc1nn(-c2ccc(F)cc2)c2sc(C(=O)O)cc12 | 11.6% |
| CCOc1ccc(C(=O)NCC(C)NC(=O)c2ccc(OCC)cc2)cc1 (stereo not shown) | 24.5% |
| COc1cc(NS(=O)(=O)c2ccc(N=Cc3c(C)[nH]n(-c4ccccc4)c3=O)cc2)nc(OC)n1 | -4.88% |
| O=C(C[n+]1ccccc1)c1ccc(-c2ccccc2)cc1.[Br-] | -21.4% |
| CN(Cc1ccccc1)C(=O)c1[nH]cnc1C(=O)NCCCCCNC(=O)OC(C)(C)C | -2.63% |
| CCOC(=O)CCNC(=O)N1CCCC(C(=O)c2ccccc2SC)C1 (stereo not shown) | 5.51% |

| SMILES | hERG current change (%, negative = inhibition) at 10uM |
| --- | --- |
| Cc1ccc(OCCn2c(C3CC(=O)N(Cc4ccccc4)C3)nc3ccccc32)cc1 (stereo not shown) | -12.6% |
| C=CCN1C(=O)S/C(=C\c2ccc(N3CCOCC3)cc2C)C1=O | -4.5% |
| CCc1nc(N=C(N)N)nc2ccccc12 | -4.78% |
| Cc1cc(NC(=O)c2cccs2)ncc1NC(=O)C(C)(C)C | 9.59% |
| CCc1ccccc1NC(=O)CN(C)C(=O)Cn1ncc(Cl)c(Cl)c1=O | 0.414% |
| c1ccc(Nc2nc(N3CCCC3)nc(N3CCOCC3)n2)cc1 | 7.66% |
| COc1ccc(OC)c(Nc2cc(C)nc3ccccc23)c1 | -57.6% |
| CCN(CC)c1ccc(/C=C/c2cccc[n+]2C)c(OC)c1.[I-] | -33.2% |
| CCC(CC)c1nnc(NC(=O)C2CCCO2)s1 (stereo not shown) | 1.47% |
| COc1ccc(CNC(=O)COC(=O)c2ccc(F)c(S(=O)(=O)N3CCCCC3)c2)cc1OC | -14.6% |
| C/C(=N/NC(=O)c1ccncc1)c1ccc2c(c1)OCO2 | 13.8% |
| COc1cccc(NC(=S)N(CCCN2CCCC2)Cc2cccn2Cc2ccc(Cl)cc2)c1 | -41.2% |
| CCc1noc(C)c1C(=O)N(C)CC(=O)Nc1ccccc1C(F)(F)F | 1.04% |
| CN(C(=O)c1cc([N+](=O)[O-])ccc1NCc1cccnc1)c1ccccc1 | -21% |
| CC(C)CCn1c(SCC(=O)N2CC(=O)Nc3ccccc32)nc2scc(-c3cccs3)c2c1=O | -12.4% |
| O=C(c1ccc2c(c1)OCCO2)N1CCN(c2ncc(C(F)(F)F)cc2Cl)CC1 | -41.3% |
| COc1ccc(C(=O)N2CCN(c3ccc(C)c(C)c3)CC2)cc1OC | -6.14% |
| CC1CCN(Cc2c(C(=O)O)nnn2-c2nonc2N)CC1 | 34.4% |
| CCCCC(=O)Nc1nnc(SCC(=O)Nc2ccc(OC)cc2)s1 | 21.8% |
| C#CCOCCOCCOCCNc1nc(N2CCN(C(=O)[C@H]([C@@H](C)CC)n3cc([C@@H](N)CO)nn3)CC2)nc(N2CCN(C(=O)[C@H](CCCCN)n3cc([C@@H](N)C(C)CC)nn3)CC2)n1.Cl (stereo partly shown) | 7.3% |
| CC(=O)Nc1ccc(S(=O)(=O)NCC2CCC(C(=O)NCc3ccccc3)CC2)cc1 (stereo not shown) | -7.76% |
